The whole screen tested about 43,000 compounds, of which about 200 (0.47%) were called active. Another 12% or so got no clear call; they are omitted. Calls follow the shape of the dose curve; as a rule, active = well fitted cell-killing curve with a large enough effect; inconclusive = small, poorly fitted or top-dose-only effect, or effect the other way; inactive = flat fitted curve, though single readings scatter. This is one part of the list.
% is scaled to controls: 0 for no effect and ±100 for the full control effect.

This assay can be described thus: Cell viability qHTS assay in S16 Pmp22-F2sN cells. Also: nearly all actives have a fitted effect of over 65% in size. As to conditions: S16 Pmp22-F2sN Schwann cells (luciferase reporters placed in the Pmp22 gene) viability, CellTiter-Glo, 24 h; series mostly up to 57.5 µM; activity change, negative = cytotoxicity: at the top concentration. The gist of the method:
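Seed 500-1,000 S16 Pmp22-F2sN cells per well in phenol-red-free DMEM with 10% heat-inactivated FBS; pin-add 23 nL compound; incubate 24 h at 37C; add CellTiter-Glo, wait 15 min protected from light; read luminescence.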
As to `CCOc1ccc(C(=O)c2cn(Cc3ccc(F)cc3)c3ccc(F)cc3c2=O)cc1`, the “activity change, negative = cytotoxicity” value is inactive: 0.252%. In the case of `Cc1cccc(-n2ncc3c(N4CCCCCC4)ncnc32)c1`, the “activity change, negative = cytotoxicity” value is inactive: -0.678%. With `Cc1ccc(CN(Cc2ccco2)C(=O)c2oc3ccc(C)cc3c2C)cc1`, the “activity change, negative = cytotoxicity” value is inactive: -3.16%.

For `Cc1ccc(NC(=O)Cn2nnc(C(=O)NCCc3ccccc3)c2N)cc1C`, the “activity change, negative = cytotoxicity” value is inactive: -4.84%. With `Cc1oc2ncn(C)c(=O)c2c1C(=O)NCCCN(Cc1ccccc1)C(C)C`, the “activity change, negative = cytotoxicity” value was inactive: 10.6%. On to `CCn1c(=O)c2sccc2n2c(CCC(=O)Nc3ccc(OC)c(Cl)c3)nnc12`, for which the “activity change, negative = cytotoxicity” value is inactive: 6.22%. `Cc1ccc(C(=O)Nc2nc(-c3ccccc3)ns2)cc1`: the “activity change, negative = cytotoxicity” value was inactive: 1.23%. The value for `CCc1ccc(C2NC(=O)c3[nH]nc(-c4cccc(OC)c4)c32)cc1` (stereo unspecified) was inactive: -17.6%; that for `CC(C)Oc1ccc(CNC(=O)C2CCN(c3nc4ccccc4n(C)c3=O)CC2)cc1` was inactive: 8.64%; that for `Cc1ccsc1CN(C(=O)c1oc2ccccc2c1C)C1CCS(=O)(=O)C1` (stereo unspecified) was inactive: -1.07%.

For the compound `Cc1ccc(C)c(Cn2c3ccccc3c3cnn(CC(=O)NC(C)c4ccccc4)c(=O)c32)c1` (stereo unspecified), the “activity change, negative = cytotoxicity” value was inactive: 24.4%.

Consider `CS(=O)(=O)N1CCc2cc(C(=O)Nc3cccc(F)c3)ccc21`, for which the “activity change, negative = cytotoxicity” value is inactive: -3.5%. As to `Cc1ccc(O)c(NC(=O)CCS(=O)(=O)c2nc(-c3ccc4c(c3)OCO4)cc(C(F)(F)F)n2)c1`, the “activity change, negative = cytotoxicity” value was inactive: 0.975%. As to `COc1ccc(S(=O)(=O)N(CC(=O)Nc2cccnc2)c2ccc(C)cc2)cc1OC`, the “activity change, negative = cytotoxicity” value was inactive: 11.8%. For `COc1cc2c(=O)n(CCC(=O)NCC3CCCO3)c(=O)n(CC(=O)Nc3ccc(F)cc3)c2cc1OC` (stereo unspecified), the “activity change, negative = cytotoxicity” value was inactive: -11.5%. The value for `CCOc1ccccc1NC(=O)COc1ccc(S(=O)(=O)NC2CCCCC2)cc1` was inactive: 9.88%; that for `O=C(Nc1ccc(F)c(F)c1)C1CCCN1S(=O)(=O)c1cccc2nsnc12` (stereo unspecified) was inactive: 3.56%. With `Cc1ccc(-n2nnc(-c3nsc(NC(=O)c4ccc(C)c(C)c4)n3)c2C)cc1`, the “activity change, negative = cytotoxicity” value is inactive: -30%.

`Cc1ccc2c(c1)c1c(c(=O)n(-c3ccccc3C)c(=O)n1CC(=O)NCC1CCCO1)n2C` (stereo unspecified): the “activity change, negative = cytotoxicity” value was inactive: 13.9%.

In the case of `Cc1cc(=O)n2nc(N3CCC(C(=O)Nc4ccc(Br)cc4F)CC3)sc2n1`, the “activity change, negative = cytotoxicity” value is inactive: 17.7%. The value for `COc1cccc(NC(=O)c2ccc(-c3nc(COc4ccc(C)cc4)c(C)o3)cc2)c1` was inactive: -9.3%; that for `Nc1c(C(=O)Nc2ccc(Br)cc2)sc2nc(-c3ccncc3)ccc12` was inactive: 6.99%.

In the case of `O=C(CNC(=O)c1ccc(Cl)cc1)OCc1cc(=O)n2nc(C3CCCCC3)sc2n1`, the “activity change, negative = cytotoxicity” value was inactive: -39.7%. As for `Cc1ccc(C)c(NC(=O)CCCN2C(=O)C(c3ccccc3)Oc3cccnc32)c1` (stereo unspecified), the figure is inactive: 18.3%; as for `CCOC(=O)c1cc(-c2ccc(F)cc2)n(CCC(=O)NC2CCCCC2)c1C`, inactive: -21.7%.

Consider `Cc1cc(C)cc(Nc2nc3c(S(=O)(=O)c4cccc(Cl)c4)nnn3c3ccsc23)c1`, for which the “activity change, negative = cytotoxicity” value is inactive: 4.68%. On to `CCOC(=O)c1cccc(NC(=O)c2cc3cc4ccc(C)cc4nc3s2)c1`, for which the “activity change, negative = cytotoxicity” value is inactive: 12.9%. Regarding `CSc1ccc(CCNC(=O)c2cc3c(-c4ccccc4F)nn(C)c3s2)cc1`, the “activity change, negative = cytotoxicity” value was inactive: 11.2%. As for `Cc1cccc(NC(=O)Cn2c(=O)n(CCC(=O)N3CCc4ccccc4C3)c(=O)c3ccccc32)c1`, the figure is inactive: 19.2%.

Regarding `CCOc1ccc(NC(=O)NCCN2CCN(c3ccccc3F)CC2)cc1`, the “activity change, negative = cytotoxicity” value is inactive: 16.9%. For the compound `CC(=O)Nc1ccc(C(=O)CSc2nnc3ccc4ccccc4n23)cc1`, the “activity change, negative = cytotoxicity” value was inactive: 5.85%. As for `CCOC(=O)c1cc2c(=O)n3ccccc3nc2n(C)c1=NC(=O)c1cc2ccccc2o1`, the figure is inactive: -18.6%; as for `CCc1ccc(OCCSc2nc(-c3cccc(C)c3)nc3cc(=O)[nH]n23)cc1`, inactive: 16.5%. The value for `COc1ccc(NC(=O)CCSc2nc(-c3ccco3)cc(C(F)(F)F)n2)cc1OC` was inactive: 2.74%; that for `O=C(CN1C(=O)C2(SCC(=O)N2c2ccc(F)cc2)c2ccccc21)NCCc1ccccc1` (stereo unspecified) was inactive: -11.4%; that for `COc1ccc(NCc2nnc3n2CCCCC3)c(OC)c1` was inactive: 10.3%. The value for `CCOc1ccc(C(=O)c2cn(CC(=O)Nc3cc(OC)ccc3OC)c3cc(OC)c(OC)cc3c2=O)cc1` was inactive: 5.22%; that for `COc1ccc(-c2ccc(=O)n(CC(=O)NCCc3ccccc3)n2)cc1` was inactive: -0.971%.

Consider `Cc1cc(C)c(NC(=O)C(C)n2nnc3sc(-c4ccccc4)cc3c2=O)c(C)c1` (stereo unspecified), for which the “activity change, negative = cytotoxicity” value was inactive: 8.48%. As for `CCOC(=O)C1CCN(C(c2ccc(F)cc2)c2sc3nc(-c4ccco4)nn3c2O)CC1` (stereo unspecified), the figure is inactive: 13.1%; as for `CCOc1cc(CNCCSc2nnnn2-c2ccccc2)ccc1OC`, inactive: -26.9%; as for `Cc1cc(C)cc(Nc2cc(C(=O)NCc3ccccc3)c3ccccc3n2)c1`, inactive: 1.08%. As for `O=[N+]([O-])c1cc(-c2nc(-c3ccncc3)no2)ccc1NCc1ccccc1`, the “activity change, negative = cytotoxicity” value was inactive: 0.0751%.

`COc1cn(CC(=O)Nc2cc(C)ccc2C)c(CN2CCCCC2)cc1=O`: the “activity change, negative = cytotoxicity” value was inactive: 1.15%. For `CNC(=O)C1CCC(Cn2c(=O)c3sccc3n(CC(=O)Nc3cc(F)ccc3F)c2=O)CC1` (stereo unspecified), the “activity change, negative = cytotoxicity” value was inactive: -16%.

`CC(=O)Nc1cccc(NC(=O)CSc2cn(CC(=O)N3CCCCCC3)c3ccccc23)c1`: the “activity change, negative = cytotoxicity” value was inactive: -1.21%.

Regarding `CCOC(=O)c1cccc(NC(=O)N2CCC(CN3CCCCCC3)CC2)c1`, the “activity change, negative = cytotoxicity” value was inactive: 15.8%. As for `COc1ccccc1NC(=O)C1=C(C)Nc2nc(SCc3ccccc3Cl)nn2C1c1ccncc1` (stereo unspecified), the figure is inactive: -3.35%; as for `CCN(CC)S(=O)(=O)c1ccc(C(=O)NCCSc2c(-c3ccc(OC)cc3)[nH]c3ccccc23)cc1`, inactive: -14.9%. For the compound `COc1ccc(OC)c(NC(=O)CN2CCCN(Cc3cc(C)ccc3C)S2(=O)=O)c1`, the “activity change, negative = cytotoxicity” value was inactive: 5.21%. Turning to `Cc1cccc2c1-c1sc(C(=O)N3CCN(c4cccc(Cl)c4)CC3)cc1CO2`, the “activity change, negative = cytotoxicity” value was inactive: 6.36%. Regarding `COc1ccc(-c2cc(C(F)(F)F)nc(SCC(=O)NCc3ccc(Cl)cc3)n2)cc1`, the “activity change, negative = cytotoxicity” value was inactive: 2.06%. As for `CCOc1ccc(CCNC(=O)c2cnc3sc(N4CCCCCC4)nn3c2=O)cc1`, the figure is inactive: -4.07%; as for `Cc1ccc(C)c(C(=O)COC(=O)CCCC(=O)Nc2cc(C(F)(F)F)ccc2Cl)c1`, inactive: 1.62%; as for `CC1=C(C(=O)Nc2ccc(F)cc2F)C2(CCCCCC2)OC1=O`, inactive: 0.984%.

`O=C(CN1C(=O)C2(SCC(=O)N2c2ccc(F)c(F)c2)c2ccccc21)Nc1ccccc1F` (stereo unspecified): the “activity change, negative = cytotoxicity” value is inactive: -0.486%. The value for `O=C(CSc1nccn1Cc1ccc(Cl)cc1)NCc1ccccc1` was inactive: -2.9%. Regarding `COc1ccccc1CNC(=O)C(CC(C)C)N1Cc2ccccc2C1=O` (stereo unspecified), the “activity change, negative = cytotoxicity” value is inactive: -15.5%. The value for `CCOc1ccc(NC(=O)CN2C(C(=O)OC)=C(c3ccccc3)c3cc(Cl)ccc3S2(=O)=O)cc1` was inactive: 17.1%; that for `Cc1cc(=O)[nH]c2nnc(SCc3ccc(Cl)cc3)n12` was inactive: 2.2%.

In the case of `COC(=O)C1=C(c2ccccc2)c2ccccc2S(=O)(=O)N1CC(=O)Nc1ccc(OC)cc1OC`, the “activity change, negative = cytotoxicity” value is inactive: -1.58%.

For the origin of these results see PubChem BioAssay AID1508642 (National Center for Advancing Translational Sciences (NCATS), 2021).
